Experimental data as given in the supplement of paper PMC12645437, “Orthogonal IMiD-Degron Pairs Induce Selective Protein Degradation in Cells” (ACS Chemical Biology, 2025).
The other results are listed elsewhere or left out.

target: no compound (DMSO); test: log2 fold change of degron read counts, EGFP-low vs EGFP+ sorted cells; higher = lower degron-EGFP level without compound (poor expression or instability); conditions: compound: DMSO control; 18 h
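Further: jurkat cells carrying a lentiviral library of mutant zinc finger degrons fused to EGFP plus mCherry, mCherry+ cells FACS sorted, degron abundance counted by next-generation sequencing.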

Row | Sequence | log2 fold change of degron read counts
1 | FYCNQCGHVFTQKGNLLRHIKL | 0.738
2 | FMCNQCGRRFTQKGNLLRHIKL | -0.186
3 | FLCNVCGADFTQKGNLLRHIKL | -1.8
4 | FYCPICGHCFTQKGNLLRHIKL | 0.16
5 | FTCNQCGRCFTQKGNLLRHIKL | -0.341
6 | FECNQCGHMFTQKGNLLRHIKL | -0.688
7 | FWCPQCGAKFTQKGNLLRHIKL | -0.646
8 | LGCEICGFFCTQKGNLLRHIKL | 1.94
9 | FTCEICGHEFTQKGNLLRHIKL | -1.53
10 | FMCNICGASFTQKGNLLRHIKL | -0.905
11 | FGCNQCGHDFTQKGNLLRHIKL | 0.677
12 | FLCSVCGHRFTQKGNLLRHIKL | -0.352
13 | FGCPICGHSFTQKGNLLRHIKL | -0.375
14 | FWCPICGAHFTQKGNLLRHIKL | 0.848
15 | LACEICGFHCTQKGNLLRHIKL | 0.313
16 | FDCPICGAGFTQKGNLLRHIKL | -0.887

Row | Sequence | log2 fold change of degron read counts
17 | FCCPICGARFTQKGNLLRHIKL | 0.0499
18 | FTCPICGRDFTQKGNLLRHIKL | -0.583
19 | LYCNQCGFICTQKGNLLRHIKL | 1.83
20 | FSCEVCGARFTQKGNLLRHIKL | -1.55
21 | FLCPICGRPFTQKGNLLRHIKL | -0.623
22 | FACNQCGHYFTQKGNLLRHIKL | 0.586
23 | FDCNICGAAFTQKGNLLRHIKL | -0.75
24 | FLCPICGRQFTQKGNLLRHIKL | -0.0442
25 | FVCPQCGANFTQKGNLLRHIKL | -1.22
26 | FGCNQCGRDFTQKGNLLRHIKL | 0.779
27 | FICPICGAHFTQKGNLLRHIKL | -0.237
28 | FYCNVCGAMFTQKGNLLRHIKL | -0.265
29 | FICPICGHRFTQKGNLLRHIKL | -0.409
30 | LACEICGFPCTQKGNLLRHIKL | -0.308
31 | LICNQCGFDCTQKGNLLRHIKL | -0.909
32 | FSCNICGATFTQKGNLLRHIKL | -0.215
